In PMC8542387 (2021):
These are yes or no findings as the source states them, for the method shown. Some binding calls cover weakened binding; strength is not graded here.

T1: Psk1 fragment lacking the N-terminal 10 residues (amino acids 11-436), two-hybrid bait (S. pombe) (UniProt Q12706)
T1 sequence: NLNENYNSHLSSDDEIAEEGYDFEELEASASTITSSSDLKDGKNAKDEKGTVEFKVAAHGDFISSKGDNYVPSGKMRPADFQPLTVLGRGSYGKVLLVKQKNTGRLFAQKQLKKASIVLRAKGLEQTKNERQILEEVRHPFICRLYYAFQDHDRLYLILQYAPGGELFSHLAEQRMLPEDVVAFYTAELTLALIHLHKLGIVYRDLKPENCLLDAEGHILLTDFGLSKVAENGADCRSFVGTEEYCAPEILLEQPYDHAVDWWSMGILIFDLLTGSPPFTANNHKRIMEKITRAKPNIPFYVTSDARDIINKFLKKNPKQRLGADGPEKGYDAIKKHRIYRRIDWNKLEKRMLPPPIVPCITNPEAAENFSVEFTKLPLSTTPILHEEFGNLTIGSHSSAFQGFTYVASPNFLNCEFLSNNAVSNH

T2: Psk1 kinase catalytic domain (amino acids 83-369), two-hybrid bait (S. pombe) (UniProt Q12706)
T2 sequence: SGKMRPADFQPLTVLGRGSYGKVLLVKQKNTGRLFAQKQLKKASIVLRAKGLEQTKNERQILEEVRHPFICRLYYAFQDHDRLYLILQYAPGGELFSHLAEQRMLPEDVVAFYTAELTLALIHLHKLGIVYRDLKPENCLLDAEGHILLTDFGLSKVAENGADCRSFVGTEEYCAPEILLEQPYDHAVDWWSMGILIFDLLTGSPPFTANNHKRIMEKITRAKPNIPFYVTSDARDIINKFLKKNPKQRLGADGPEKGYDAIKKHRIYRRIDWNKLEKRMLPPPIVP

T3: Psk1 full length, two-hybrid bait (S. pombe) (UniProt Q12706)
T3 sequence: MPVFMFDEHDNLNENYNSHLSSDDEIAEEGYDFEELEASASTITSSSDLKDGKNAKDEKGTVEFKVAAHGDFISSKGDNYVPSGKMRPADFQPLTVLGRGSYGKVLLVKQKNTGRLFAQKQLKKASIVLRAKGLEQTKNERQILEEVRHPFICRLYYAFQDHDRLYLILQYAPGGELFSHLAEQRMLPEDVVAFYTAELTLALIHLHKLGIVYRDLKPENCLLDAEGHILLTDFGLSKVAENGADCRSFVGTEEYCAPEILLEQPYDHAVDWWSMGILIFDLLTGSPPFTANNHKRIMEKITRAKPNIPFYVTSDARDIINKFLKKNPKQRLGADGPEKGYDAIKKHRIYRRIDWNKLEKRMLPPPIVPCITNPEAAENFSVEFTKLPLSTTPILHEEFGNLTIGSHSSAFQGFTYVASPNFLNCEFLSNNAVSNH

T4: Psk1 C-terminal fragment (amino acids 343-436), two-hybrid bait (S. pombe) (UniProt Q12706)
T4 sequence: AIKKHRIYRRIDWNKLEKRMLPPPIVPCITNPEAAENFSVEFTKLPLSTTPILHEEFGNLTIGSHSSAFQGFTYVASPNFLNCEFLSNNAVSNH

T5: Psk1 N-terminal fragment (amino acids 1-90), two-hybrid bait (S. pombe) (UniProt Q12706)
T5 sequence: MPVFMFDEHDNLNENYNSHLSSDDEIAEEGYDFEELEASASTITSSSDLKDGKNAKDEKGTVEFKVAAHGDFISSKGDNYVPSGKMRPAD


Legend:
Test in all cases: two-hybrid; Psk1 constructs as bait (pGBT8), Mip1 constructs as prey (pGAD GH); budding yeast Y2HGold; ADE2 and HIS3 reporters (adenine and histidine auxotrophic markers)
[1] = biological target: T1, Psk1 fragment lacking the N-terminal 10 residues (amino acids 11-436), two-hybrid bait (S. pombe)
[2] = biological target: T2, Psk1 kinase catalytic domain (amino acids 83-369), two-hybrid bait (S. pombe)
[3] = biological target: T3, Psk1 full length, two-hybrid bait (S. pombe)
[4] = biological target: T4, Psk1 C-terminal fragment (amino acids 343-436), two-hybrid bait (S. pombe)
[5] = biological target: T5, Psk1 N-terminal fragment (amino acids 1-90), two-hybrid bait (S. pombe)

| binding [1] | binding [2] | binding [3] | binding [4] | binding [5] | Binder |
| --- | --- | --- | --- | --- | --- |
| no binding | no binding | binds | no binding | binds | Mip1 (fission yeast RAPTOR ortholog), two-hybrid prey (protein, UniProt P87141 1-1313) MNDRISEVSGSSRARRSVLSYGTTETGSDRYTENSNIATENGVDTASSMIDGIQSGFPQPRHGFEEEYNNAEYINMLEQVFYMYYTDKRHRGVISKKNAEPTETIHDWRMRERLKTVSAALLVCLNIGVDPPDVIKPNPAAKYECWIDPFSLPASKALEAIGKNLQQQYETLSMRTRYRHYLDPAIEEVKKLCIGQRRNAKEERILFHYNGHGVPMPTASGEIWVFNKNYTQYIPVSLYDLQSWLGAPCIYVYDCSAAGNIIVNFNRFAEQRDKEALRIAKQNPNVLAMPSHTSCIQLAACGPKETLPMNPDLPADLFTSCLTSPIEISVRWYVLQNPFPNKLNLNMLLKIPGRLQDRRTPLGELNWIFTAITDTIAWNVFPKHLFRRLFRQDLMVAALFRNFLLAERIMLVHSCHPQSSPELPPTHDHPMWNSWDLAIDNCLSQLPDMLDAESKGIAYEYKHSTFFSEQLTAFEVWLSQGLISRKPPDQLPLVLQVLLSQVHRLRALILLSKFLDLGVWAVDLALSIGIFPYVLKLLQSPAIELKPVLVFIWARILAVDDSCQADLLKDNGYGYFVQILNPNSSIFPSSNISEHRAMCAFILSVFCRGFPQGQLACLNPQVLSHCLSHLNSPDSLLRQWACLCISQLWENYSEAKWSGTRDNAHVKLAEIIVDSVPEVRASVLTAFTTFLGFPEKTEEVVAVETYIAIAALAALSDASPLVRHELVIFLSHFVVNYKKQLMVVAYESSLADILEKKNHNSISASTIYETVWQAVLVLAADPSIEISLAAEAIINYVYQSMLNSELRESFLAFLLQHLPALHKASLSKDTDTNSVTSDPKPHPFVPSVSENKILNRSFSLTRSLKGLALSLAGSDRASELLSLNGENKPAESNLNHLTSAKVPGPPAFNELEYQSELDMPLTSYLFDWSRKYFTEPQMRPNEDDEPGSICYNQRLWRRNRNEKLIYRTRPLAEYSTNGRWNQQLMTFNNTIAPRKLMFHQFEDQLITLGDKDIIQVWDWRRNRCLNSFKTSASATTNVTDMQLLNEDDVALLMTGSSDGTIKLYRDYENEKVELVTSWNSLSDLVFGDRNASLLMSWQQNCGHLLVAGDVRVIRIWDASKEICYANLPVRSSNSITSLTSDLVGCNIIVAGFSDGVLRVYDKRLPARDSLTDVWKEHSSEIVNVEMQSSGMRELISASSDGEVKLWDIRMNHSLQTFSTDNSGLTSLTVHSHAPVYATGSSNQSIKIWDTLGQNINTFRENPRFLNQPKPSSLMCLKFHPHHLLLACGDNTDSRVNLYSCTKNEIHTDSPNEF |
|  |  | binds |  |  | Mip1-R358A, two-hybrid prey (protein, UniProt P87141 1-1313) MNDRISEVSGSSRARRSVLSYGTTETGSDRYTENSNIATENGVDTASSMIDGIQSGFPQPRHGFEEEYNNAEYINMLEQVFYMYYTDKRHRGVISKKNAEPTETIHDWRMRERLKTVSAALLVCLNIGVDPPDVIKPNPAAKYECWIDPFSLPASKALEAIGKNLQQQYETLSMRTRYRHYLDPAIEEVKKLCIGQRRNAKEERILFHYNGHGVPMPTASGEIWVFNKNYTQYIPVSLYDLQSWLGAPCIYVYDCSAAGNIIVNFNRFAEQRDKEALRIAKQNPNVLAMPSHTSCIQLAACGPKETLPMNPDLPADLFTSCLTSPIEISVRWYVLQNPFPNKLNLNMLLKIPGRLQDARTPLGELNWIFTAITDTIAWNVFPKHLFRRLFRQDLMVAALFRNFLLAERIMLVHSCHPQSSPELPPTHDHPMWNSWDLAIDNCLSQLPDMLDAESKGIAYEYKHSTFFSEQLTAFEVWLSQGLISRKPPDQLPLVLQVLLSQVHRLRALILLSKFLDLGVWAVDLALSIGIFPYVLKLLQSPAIELKPVLVFIWARILAVDDSCQADLLKDNGYGYFVQILNPNSSIFPSSNISEHRAMCAFILSVFCRGFPQGQLACLNPQVLSHCLSHLNSPDSLLRQWACLCISQLWENYSEAKWSGTRDNAHVKLAEIIVDSVPEVRASVLTAFTTFLGFPEKTEEVVAVETYIAIAALAALSDASPLVRHELVIFLSHFVVNYKKQLMVVAYESSLADILEKKNHNSISASTIYETVWQAVLVLAADPSIEISLAAEAIINYVYQSMLNSELRESFLAFLLQHLPALHKASLSKDTDTNSVTSDPKPHPFVPSVSENKILNRSFSLTRSLKGLALSLAGSDRASELLSLNGENKPAESNLNHLTSAKVPGPPAFNELEYQSELDMPLTSYLFDWSRKYFTEPQMRPNEDDEPGSICYNQRLWRRNRNEKLIYRTRPLAEYSTNGRWNQQLMTFNNTIAPRKLMFHQFEDQLITLGDKDIIQVWDWRRNRCLNSFKTSASATTNVTDMQLLNEDDVALLMTGSSDGTIKLYRDYENEKVELVTSWNSLSDLVFGDRNASLLMSWQQNCGHLLVAGDVRVIRIWDASKEICYANLPVRSSNSITSLTSDLVGCNIIVAGFSDGVLRVYDKRLPARDSLTDVWKEHSSEIVNVEMQSSGMRELISASSDGEVKLWDIRMNHSLQTFSTDNSGLTSLTVHSHAPVYATGSSNQSIKIWDTLGQNINTFRENPRFLNQPKPSSLMCLKFHPHHLLLACGDNTDSRVNLYSCTKNEIHTDSPNEF |
